# Results: PMC4336329 (PLoS ONE, 2015)
# The whole screen tested about 310,000 compounds, of which about 2,200 (0.71%) showed an effect of 50% or more. The effect is printed as a negative number. The list shows a part of the results.
# Molecular target: human ether-à-go-go-related gene (hERG) potassium channel (human, UniProt Q12809)
# Assay: primary screen, population patch clamp on CHO cells stably expressing hERG
# Sequence of human ether-à-go-go-related gene (hERG) potassium channel (Q12809 whole entry, looked up): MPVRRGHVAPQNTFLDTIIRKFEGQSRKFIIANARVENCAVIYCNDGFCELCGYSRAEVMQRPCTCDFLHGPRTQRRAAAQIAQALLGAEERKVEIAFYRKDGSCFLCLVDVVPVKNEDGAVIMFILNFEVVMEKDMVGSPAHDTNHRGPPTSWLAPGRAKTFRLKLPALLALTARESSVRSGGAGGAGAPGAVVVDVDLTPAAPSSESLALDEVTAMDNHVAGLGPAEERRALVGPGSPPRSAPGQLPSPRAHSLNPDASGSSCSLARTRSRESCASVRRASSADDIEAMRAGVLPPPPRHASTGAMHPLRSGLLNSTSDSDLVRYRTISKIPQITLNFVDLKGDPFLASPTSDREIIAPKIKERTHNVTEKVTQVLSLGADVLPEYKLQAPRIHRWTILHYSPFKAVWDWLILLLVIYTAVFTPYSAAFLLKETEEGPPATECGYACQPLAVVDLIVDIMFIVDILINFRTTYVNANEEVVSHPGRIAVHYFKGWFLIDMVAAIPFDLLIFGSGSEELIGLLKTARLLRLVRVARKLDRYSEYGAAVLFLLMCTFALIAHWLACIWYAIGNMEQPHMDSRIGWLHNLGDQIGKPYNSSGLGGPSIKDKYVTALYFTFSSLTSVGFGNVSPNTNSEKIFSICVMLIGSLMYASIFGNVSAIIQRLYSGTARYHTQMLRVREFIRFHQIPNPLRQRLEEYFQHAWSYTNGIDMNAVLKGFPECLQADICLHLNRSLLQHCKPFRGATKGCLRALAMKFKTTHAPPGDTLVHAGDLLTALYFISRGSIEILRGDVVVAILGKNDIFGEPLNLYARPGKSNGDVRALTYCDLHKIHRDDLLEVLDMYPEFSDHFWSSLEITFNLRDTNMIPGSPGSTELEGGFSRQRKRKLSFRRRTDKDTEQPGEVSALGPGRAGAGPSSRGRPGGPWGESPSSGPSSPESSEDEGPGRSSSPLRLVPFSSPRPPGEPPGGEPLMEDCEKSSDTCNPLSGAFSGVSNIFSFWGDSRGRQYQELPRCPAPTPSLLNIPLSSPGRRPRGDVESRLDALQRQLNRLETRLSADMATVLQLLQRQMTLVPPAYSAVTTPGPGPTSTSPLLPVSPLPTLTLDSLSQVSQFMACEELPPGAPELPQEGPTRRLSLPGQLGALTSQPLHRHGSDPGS
row,SMILES,"hERG current change (%, negative = inhibition) at 1uM"
1,N/C(COc1cccc(C(F)(F)F)c1)=N\NC(=O)c1cccnc1Oc1ccccc1,6.91%
2,O=C(CCc1nnc(-c2ccsc2)o1)NCc1ccccc1OC(F)(F)F,6.48%
3,Cc1ccc(S(=O)(=O)NCCC(=O)NNC(=O)COc2ccccc2Cl)cc1C,5.56%
4,O=C(N/N=C/c1c(F)cccc1Cl)c1cc(C2CC2)[nH]n1,16.2%
5,COc1ccc2[nH]c(=O)c(CN(CCCN3CCOCC3)C(=O)NCc3ccccc3)cc2c1,12%
6,CS(=O)(=O)N1N=C(c2cccs2)CC1c1ccccc1 (centres unmarked),-2.23%
7,COc1ccc(C(=O)Nc2cc(=O)[nH]c3ncnn23)cc1,2.56%
8,Cc1cc(C)nc(/N=C2\NC(=O)CC(C(=O)O)N2c2ccc(Oc3ccccc3)cc2)n1 (centres unmarked),12.9%
9,c1ccc(OCc2nn3c(-c4ccco4)nnc3s2)cc1,-11.9%
10,COc1ccc2[nH]cc(C(=O)CN3CCCC(C)(C)C3)c2c1,-0.323%
11,COc1cccc2c3c(c(C)nc12)CCN3c1ccccc1,-8.76%
12,CCOc1ccccc1Oc1coc2cc(OCC(=O)O)ccc2c1=O,22.1%
13,COc1ccc(OC)c(CN2CCN(C(=O)CNC(=O)c3ccc(C(C)(C)C)cc3)CC2)c1,-1.22%
14,CCCCn1cc(C(C)(C)C)c(C#N)c1NC(C)=O,12.6%
15,CCN(c1ccccc1)S(=O)(=O)c1ccc2ccccc2c1,14.6%
16,COc1ccc(CC(=O)c2ccc(OC)c(OC)c2)cc1,5.35%
17,COc1ccc(-c2[nH]ncc2CN2CCN(Cc3cccs3)CC2)c(F)c1,1.54%
18,COC(=O)C1=C(c2ccc(C(C)=O)cc2)C[C@@H]2CC[C@H]1N2C(=O)N1CCOCC1,11.4%
19,COc1ccccc1N1CCN(C(=O)c2cc(-c3ccc(C)cc3)on2)CC1,6.17%
20,O=C(NCC1(N2CCCCC2)CCCCC1)C1CC(=O)N(c2ccc3c(c2)OCCO3)C1 (centres unmarked),14.3%
21,CN(C)c1ccc(/C=C/C=C2/SC(=S)N(c3ccccc3)C2=O)cc1,13.9%
22,O=C(O)c1cccc(NC(=O)c2ccc(Cl)c(S(=O)(=O)N3CCCCCC3)c2)c1,18.9%

row,SMILES,"hERG current change (%, negative = inhibition) at 1uM"
1,CC(C)(C)NC(=O)c1cccc(NC(=O)c2ccco2)c1,7.94%
2,COc1cccc(NC(=S)Nc2cccc3ccccc23)c1,14%
3,Cc1cc(C(=O)CCC(=O)Nc2ncccc2O)c(C)s1,5.56%
4,O=C(Cn1c(CCCO)nc2ccccc21)Nc1ccccc1-c1ccccc1,11.2%
5,CC1(C)Cc2c(sc3nc(SCC(=O)N4CCOCC4)nc(N)c23)CO1,-2.97%
6,O=C(O)c1ccc(NS(=O)(=O)c2cccc(C(=O)Nc3ccc(Br)cc3)c2)cc1,8.18%
7,CCn1c(C)nc2cc(-c3nnc(-c4c(-c5ccccc5)noc4C)o3)ccc21,3.39%
8,CC(NC(=O)C1CCC1)c1ccccc1 (centres unmarked),10.4%
9,COC(=O)C(CC(=O)c1ccc(C)cc1)n1nc(C)cc1C (centres unmarked),12.9%
10,CC(=O)Nc1ccc(NC(=O)C2CCCN(S(=O)(=O)c3ccc(Cl)cc3)C2)cc1 (centres unmarked),17%
11,Cc1cccc(Nc2ncccc2C(=O)NCc2cccs2)c1C,-1.22%
12,CN1C[C@@H]2C(c3ccc(C(F)(F)F)cc3)C3(c4ccccc4)CC2(C3)[C@H]1c1ccccc1 (some centres unmarked),8.58%
13,CCN1C(=O)/C(=C/c2cn(C)nc2C)SC1=S,3.2%
14,CCCC(=O)Nc1cccc(-c2cn3cccnc3n2)c1,5.74%
15,O=C(Nc1ccc2c(c1)OCO2)C1CC1(Cl)Cl (centres unmarked),7.49%
16,Cc1ccc(C(=O)Nc2nc3c(s2)CCCC3)o1,6.5%
17,CCOC(=O)[C@H]1[C@H]2COc3ccc(C)cc3[C@@H]2N2C(=O)c3cc(Cl)ccc3NC(=O)[C@@]12C,7.62%
18,O=C(CN1C(=O)C2CC=CCC2C1=O)Nc1nc2ccccc2s1 (centres unmarked),4.22%
19,O=C(COC(=O)c1nc(Cl)ccc1Cl)Nc1ccc(Cl)cn1,9.36%
20,CNS(=O)(=O)c1cccc(C(=O)OCC(=O)/C=C2/N(C)c3ccccc3C2(C)C)c1,20.6%
21,Cc1ccc(O)c(C2=NCCNC(C(F)(F)C(F)F)=C2)c1,3.12%
22,Cc1cccc(NC(=S)N(CCCN2CCOCC2)C(C)c2cc3ccccc3o2)c1C (centres unmarked),1.24%
